The target in assay [1] is T1, TLN161, N-terminal appended domain of hThrRS-L (Met1-Ile161), Gal4 DNA binding domain fusion (human) (UniProt A2RTX5).
T1 sequence: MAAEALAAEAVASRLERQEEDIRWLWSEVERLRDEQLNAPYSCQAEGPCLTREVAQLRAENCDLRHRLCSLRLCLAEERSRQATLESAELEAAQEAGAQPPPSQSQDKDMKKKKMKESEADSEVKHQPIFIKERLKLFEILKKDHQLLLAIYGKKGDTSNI
Nature of the assay: two-hybrid; screen: Gal4 DNA binding domain-TLN161 in Y2HGold mated with Y187 carrying a normalized Mate & Plate human cDNA library; QDO/X/A plates.

Assay [2] has as its target T1, TLN161, N-terminal appended domain of hThrRS-L (Met1-Ile161), Gal4 DNA binding domain fusion (human). Nature of the assay: two-hybrid; pairwise: pGADT7 construct and pGBKT7 construct together in Y2HGold; growth on QDO/X/A (SD/QDO/X) plates.
Assay [3] deals with T2, TLN161-Hb/A, Gal4 DNA binding domain fusion (human) (UniProt A2RTX5).
T2 sequence: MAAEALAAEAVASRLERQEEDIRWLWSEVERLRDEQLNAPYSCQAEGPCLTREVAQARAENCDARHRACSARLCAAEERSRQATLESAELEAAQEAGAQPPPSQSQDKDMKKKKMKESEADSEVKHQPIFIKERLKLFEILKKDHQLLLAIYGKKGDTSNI
The description is as above.

Assay [4] concerns the target T3, TLN161(1-74), N-terminal part of TLN161, Gal4 DNA binding domain fusion (human) (UniProt A2RTX5).
T3 sequence: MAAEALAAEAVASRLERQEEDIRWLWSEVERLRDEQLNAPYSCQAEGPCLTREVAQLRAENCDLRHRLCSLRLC
The assay is described as above.

Assay [5] deals with T4, TLN161(75-161), C-terminal part of TLN161, Gal4 DNA binding domain fusion (human) (UniProt A2RTX5).
T4 sequence: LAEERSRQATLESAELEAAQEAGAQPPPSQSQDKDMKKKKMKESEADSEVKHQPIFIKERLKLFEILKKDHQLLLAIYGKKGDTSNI
The description is as above.

Assay [6] deals with T5, TLN161-Ha/Hb/A, Gal4 DNA binding domain fusion (human) (UniProt A2RTX5).
T5 sequence: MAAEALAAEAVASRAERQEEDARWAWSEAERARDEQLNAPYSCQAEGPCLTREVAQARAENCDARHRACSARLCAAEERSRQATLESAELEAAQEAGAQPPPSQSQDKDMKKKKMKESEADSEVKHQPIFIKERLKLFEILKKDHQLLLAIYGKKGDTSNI
The description is as above.

Assay [7] addresses T6, TLN161-Ha/A, Gal4 DNA binding domain fusion (human) (UniProt A2RTX5).
T6 sequence: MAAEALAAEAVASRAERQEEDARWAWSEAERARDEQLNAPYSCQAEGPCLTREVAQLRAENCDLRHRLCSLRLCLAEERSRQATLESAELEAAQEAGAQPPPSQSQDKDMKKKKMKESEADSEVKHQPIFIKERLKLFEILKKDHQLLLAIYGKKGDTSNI
The description is as above.

Assay [8] has as its target T1, TLN161, N-terminal appended domain of hThrRS-L (Met1-Ile161), Gal4 DNA binding domain fusion (human). Nature of the assay: two-hybrid; TLN161 linker mutants with p43 and ArgRS; data not shown.
Assay [9] has as its target T7, TLN161-M3/A, Gal4 DNA binding domain fusion (human) (UniProt A2RTX5).
T7 sequence: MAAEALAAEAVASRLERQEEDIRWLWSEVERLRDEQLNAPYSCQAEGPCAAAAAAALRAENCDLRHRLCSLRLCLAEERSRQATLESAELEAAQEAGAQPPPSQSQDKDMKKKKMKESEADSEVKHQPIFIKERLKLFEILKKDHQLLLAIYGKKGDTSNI
Described as above.

Assay [10] deals with T8, TLN161-M2/A, Gal4 DNA binding domain fusion (human) (UniProt A2RTX5).
T8 sequence: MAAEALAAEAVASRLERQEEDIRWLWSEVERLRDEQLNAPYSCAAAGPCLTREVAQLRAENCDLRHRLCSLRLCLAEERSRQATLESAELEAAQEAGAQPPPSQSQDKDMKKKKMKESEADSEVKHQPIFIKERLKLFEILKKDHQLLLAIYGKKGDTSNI
The description is as above.

In assay [11] the target is T9, TLN161-M1/A, Gal4 DNA binding domain fusion (human) (UniProt A2RTX5).
T9 sequence: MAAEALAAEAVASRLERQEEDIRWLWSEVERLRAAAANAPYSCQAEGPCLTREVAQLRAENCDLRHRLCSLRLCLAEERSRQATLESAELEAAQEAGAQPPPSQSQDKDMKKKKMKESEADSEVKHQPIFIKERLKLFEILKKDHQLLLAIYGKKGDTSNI
The assay is described as above.

The target of assay [12] is T10, native mouse ThrRS-L (mThrRS-L) (mouse (endogenous in muscle tissue and NIH/3T3)) (UniProt Q8BLY2).
T10 sequence: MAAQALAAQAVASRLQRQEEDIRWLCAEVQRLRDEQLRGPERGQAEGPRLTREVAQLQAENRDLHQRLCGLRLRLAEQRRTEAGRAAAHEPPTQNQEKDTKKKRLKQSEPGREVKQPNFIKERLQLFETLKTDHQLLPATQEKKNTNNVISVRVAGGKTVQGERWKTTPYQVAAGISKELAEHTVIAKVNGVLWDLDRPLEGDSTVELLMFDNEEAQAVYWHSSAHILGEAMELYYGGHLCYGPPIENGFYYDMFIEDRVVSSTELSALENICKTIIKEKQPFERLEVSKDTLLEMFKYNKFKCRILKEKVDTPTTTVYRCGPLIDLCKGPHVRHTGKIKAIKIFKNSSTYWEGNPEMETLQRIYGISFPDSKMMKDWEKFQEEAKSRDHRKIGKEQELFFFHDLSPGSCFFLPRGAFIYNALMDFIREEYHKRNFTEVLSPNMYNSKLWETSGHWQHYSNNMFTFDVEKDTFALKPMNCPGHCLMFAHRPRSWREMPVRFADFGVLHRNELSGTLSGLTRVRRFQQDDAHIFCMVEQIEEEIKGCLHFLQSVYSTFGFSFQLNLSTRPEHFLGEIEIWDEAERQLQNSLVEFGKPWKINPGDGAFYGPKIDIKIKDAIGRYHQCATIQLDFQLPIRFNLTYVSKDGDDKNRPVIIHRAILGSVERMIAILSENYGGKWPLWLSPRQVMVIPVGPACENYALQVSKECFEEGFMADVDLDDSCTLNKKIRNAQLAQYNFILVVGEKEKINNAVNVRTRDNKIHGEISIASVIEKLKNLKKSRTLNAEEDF
Nature of the assay: SEC; mouse muscle tissue extract on Superose-6, 50 mM Tris-HCl pH 7.5, 50 mM NaCl, 1 mM PMSF, 1 mM DTT; fractions immunoblotted. (In general: In gel filtration, larger molecules generally elute earlier.)

The target of assay [13] is T10, native mouse ThrRS-L (mThrRS-L) (mouse (endogenous in muscle tissue and NIH/3T3)). Kind of assay: SEC; NIH/3T3 whole cell lysate on Superose-6, 50 mM Tris-HCl pH 7.5, 50 mM NaCl, 1 mM PMSF, 1 mM DTT; fractions immunoblotted.

These results are taken from publication PMC6794377.

Results are given in words; binding and its absence hold for the method and conditions named. Some results given as binding are weak or reduced against the parent protein; the word gives no strength. For some of these results: Tags and fused reporters may be left off the sequences shown.

B1: p43 (AIMP1), 336-aa isoform, Gal4 activation domain fusion (protein, UniProt Q12904-2 1-336)
chain: MLPAVAVSEPVVLRFMIFCRLLAKMANNDAVLKRLEQKGAEADQIIEYLKQQVSLLKEKAILQATLREEKKLRVENAKLKKEIEELKQELIQAEIQNGVKQIPFPSGTPLHANSMVSENVIQSTAVTTVSSGTKEQIKGGTGDEKKAKEKIEKKGEKKEKKQQSIAGSADSKPIDVSRLDLRIGCIITARKHPDADSLYVEEVDVGEIAPRTVVSGLVNHVPLEQMQNRMVILLCNLKPAKMRGVLSQAMVMCASSPEKIEILAPPNGSVPGDRITFDAFPGEPDKELNPKKKIWEQIQPDLHTNDECVATYKGVPFEVKGKGVCRAQTMSNSGIK
In the case of B1, the binding result in assay [1] is “binds”; in [2], “binds”; in [3] it was “binds”; in assay [4], “binds”; in [5], “no binding”; in [6] it was “no binding”. In addition, the binding result in assay [7], in [8], in [9], in assay [10] and in assay [11] was “binds” throughout.

B2: mouse p43, endogenous (protein, UniProt P31230 1-310)
chain: MATNDAVLKRLEQKGAEADQIIEYLKQQVALLKEKAILQATMREEKKLRVENAKLKKEIEELKQELILAEIHNGVEQVRVRLSTPLQTNCTASESVVQSPSVATTASPATKEQIKAGEEKKVKEKTEKKGEKKEKQQSAAASTDSKPIDASRLDLRIGCIVTAKKHPDADSLYVEEVDVGEAAPRTVVSGLVNHVPLEQMQNRMVVLLCNLKPAKMRGVLSQAMVMCASSPEKVEILAPPNGSVPGDRITFDAFPGEPDKELNPKKKIWEQIQPDLHTNAECVATYKGAPFEVKGKGVCRAQTMANSGIK
Take B2: the binding result in [12] and in assay [13] was “binds” throughout.
